For 39 compounds, cytotoxicity call results are on record in the antibiotic and cytotoxicity screens of Wong et al. (2023).

SMILES strings stand for the structures. The list shows a part of the results.

The test system of this assay is HSkMC (human skeletal muscle cells). Put plainly: cytotoxicity call (relative viability < 0.9). The settings on record: 10 µM.
Consider `C[C@@H]1CCCCO[C@H](CN(C)C(=O)Nc2ccc3c(c2)OCO3)[C@@H](C)CN([C@@H](C)CO)C(=O)c2cc(NC(=O)CCC(F)(F)F)ccc2O1`, for which the cytotoxicity call is “inactive”.
The value for `C[C@H](CO)N1C[C@H](C)[C@@H](CN(C)Cc2ccc(Oc3ccccc3)cc2)Oc2ccc(NC(=O)Cc3cn(C)c4ccccc34)cc2C1=O` was “inactive”; that for `O=C(N[C@@H]1CC[C@@H](CC(=O)N2CCOCC2)O[C@@H]1CO)c1ccccn1` was “inactive”.
As for `COc1ccc(S(=O)(=O)N(C)C[C@@H]2OCCCC[C@@H](C)Oc3ccc(NC(=O)C4CCCCC4)cc3C(=O)N([C@@H](C)CO)C[C@@H]2C)cc1`, the cytotoxicity call is “inactive”.
In the case of `CC(=O)OC1CC2CC(OC(C)=O)C3(C)C(CCC4(C)C(c5ccoc5)OC(OC(C)=O)C5OC543)C2(C)C(OC(C)=O)C1` (centres undefined), the cytotoxicity call is “inactive”.
The value for `COc1ccc(C#Cc2ccc3c(c2)[C@]2(C(=O)N3)[C@H](C(=O)Nc3nc4ccccc4s3)[C@H]3C(=O)O[C@H](c4ccccc4)[C@H](c4ccccc4)N3[C@@H]2c2ccccc2OCCO)cc1` was “inactive”.
Then `C[C@H](CO)N1C[C@H](C)[C@H](CN(C)Cc2ccc(C(=O)Nc3ccccc3N)cc2)Oc2c(NC(=O)Nc3ccc(C(F)(F)F)cc3)cccc2C1=O`, with “inactive”; and `C[C@H]1CN([C@@H](C)CO)C(=O)c2cc(NC(=O)Cn3cnnn3)ccc2O[C@@H]1CN(C)C(=O)Nc1ccc2c(c1)OCO2`, with “inactive”.
For `C[C@@H]1CN([C@H](C)CO)C(=O)Cc2cc(NS(C)(=O)=O)ccc2O[C@@H]1CN(C)S(=O)(=O)c1cccs1`, the cytotoxicity call was “inactive”.
The value for `Cc1ccc(S(=O)(=O)Nc2ccc3c(c2)C(=O)N([C@H](C)CO)C[C@H](C)[C@H](CN(C)C(=O)Nc2cccc4ccccc24)O3)cc1` was “inactive”; that for `Cc1ccc(S(=O)(=O)N(C)C[C@@H]2Oc3cc(C#Cc4ccccc4)ccc3S(=O)(=O)N([C@@H](C)CO)C[C@H]2C)cc1` was “inactive”; that for `C=CC[C@H](CC(=O)N(CCO)Cc1ccccc1)C(=O)N[C@@H](COC(=O)[C@@H](CC=C)Cc1ccc(F)cc1)Cc1c[nH]c2ccccc12` was “active”.
Then `O=C1OCC=C[C@H]2O[C@@]34C=CCN(Cn5nnc6ccccc65)C(=O)[C@H]3N(CCO)C(=O)[C@@H]4[C@@H]12`, with “inactive”; and `CNC[C@H](O)c1ccc(O)c(O)c1`, with “inactive”; and `CN(C)C(=O)N1CC2(CCN(S(=O)(=O)N(C)C)CC2)[C@]2(CCN(C)C2=O)C1`, with “inactive”.
The value for `C[C@@H]1CN([C@H](C)CO)C(=O)c2cccc(NC(=O)Nc3cccc4ccccc34)c2O[C@H]1CN(C)S(=O)(=O)c1ccc(Cl)cc1` was “inactive”.
As for `COCC(=O)N(C)C[C@@H]1Oc2cc(C#C[C@H](C)O)ccc2S(=O)(=O)N([C@@H](C)CO)C[C@H]1C`, the cytotoxicity call is “inactive”.
Then `C[C@H]1CCCCO[C@H](CN(C)S(=O)(=O)c2ccc(Cl)cc2)[C@@H](C)CN([C@@H](C)CO)C(=O)c2cc(NS(=O)(=O)c3ccc(Cl)cc3)ccc2O1`, with “inactive”; and `CC1=C(C(=O)O)N2C(=O)[C@@H](NC(=O)[C@H](N)C3=CCC=CC3)[C@H]2SC1`, with “inactive”.
With `C[C@@H]1CN([C@H](C)CO)S(=O)(=O)c2ccc(-c3ccncc3)cc2O[C@@H]1CN(C)S(=O)(=O)c1ccccc1F`, the cytotoxicity call is “inactive”.
Then `Cc1ccc(S(=O)(=O)N(C)C[C@@H]2OCCCC[C@H](C)Oc3ccc(NC(=O)Nc4cccc5ccccc45)cc3C(=O)N([C@H](C)CO)C[C@H]2C)cc1`, with “inactive”; and `O=C1OC(CN2CCOCC2)CN1N=Cc1ccc([N+](=O)[O-])o1` (centres undefined), with “inactive”.
In the case of `O=C(CN1CCOCC1)NCC[C@H]1CC[C@@H](NC(=O)c2ccc3c(c2)OCO3)[C@H](CO)O1`, the cytotoxicity call is “inactive”.
On to `C[C@@H]1CN([C@@H](C)CO)C(=O)c2cc(NC(=O)Nc3ccccc3)ccc2O[C@@H]1CN(C)Cc1ccc(C(F)(F)F)cc1`, for which the cytotoxicity call was “inactive”.
Then `O=C(CNC(=O)c1ccc(Cl)cc1)NO`, with “inactive”.
Then `CO[C@@H](C(=O)N(C)C[C@@H]1OCc2ccccc2-c2c(n(C)c3ccccc23)C(=O)N([C@H](C)CO)C[C@H]1C)c1ccccc1`, with “inactive”.
Then `COc1ccc(CCNC(=O)[C@@]2(Sc3ccc(C)cc3)CC(=O)N(C(C)C)[C@@H]2c2ccc(CO)cc2)cc1`, with “inactive”.
On to `CO[C@@H]1CN(C)C(=O)c2cc(NS(C)(=O)=O)ccc2OC[C@H](C)N(C(=O)C2CCCCC2)C[C@@H]1C`, for which the cytotoxicity call is “inactive”.
`C[C@H](CO)N1C[C@H](C)[C@H](CN(C)Cc2ccccc2)Oc2c(NC(=O)c3ccc(-c4nccs4)cc3)cccc2C1=O`: the cytotoxicity call is “inactive”.
Then `COc1ccc(CN(C)C[C@@H]2OCCCC[C@@H](C)Oc3ccc(NC(=O)c4ccncc4)cc3C(=O)N([C@@H](C)CO)C[C@@H]2C)cc1`, with “inactive”; and `NC1CCN(C(=O)c2cc3ccccc3[nH]2)CC1`, with “inactive”; and `COCC(=O)Nc1ccc2c(c1)OC[C@@H](C)N(Cc1ccccc1F)C[C@@H](C)[C@@H](OC)CN(C)C2=O`, with “inactive”.
`CN(C)CCCNC(=O)C[C@@H]1C=C[C@H](NC(=O)Cc2cccnc2)[C@H](CO)O1`: the cytotoxicity call was “inactive”.
Then `O=C(O)C(O)C(O)C(=O)O.OCc1cccnc1` (centres undefined), with “inactive”; and `Cc1ccc(S(=O)(=O)Nc2ccc3c(c2)CC(=O)N([C@H](C)CO)C[C@H](C)[C@H](CN(C)Cc2ccc(C(F)(F)F)cc2)O3)cc1`, with “active”; and `COc1ccc(S(=O)(=O)N(C)C[C@@H]2Oc3ccc(NC(=O)CCC(F)(F)F)cc3CC(=O)N([C@H](C)CO)C[C@@H]2C)cc1`, with “inactive”.
The value for `O=C(C[C@@H]1C=C[C@H](NC(=O)c2cnccn2)[C@H](CO)O1)NCc1ccccc1F` was “inactive”; that for `CS(=O)(=O)N1CCN(c2ccccc2)CC1` was “inactive”.
Then `COCC#Cc1ccc2c(c1)O[C@H](CN(C)S(=O)(=O)c1ccc(C)cc1)[C@@H](C)CN([C@H](C)CO)S2(=O)=O`, with “inactive”.
